From patent US20180194841A1 (Regeneron, published 2018)

Legend:
[1] = molecular target: T1, human CD20 (on Raji cells, CD3-, CD20+ human B-cell line; on B16F10.9/CD20 cells) (human, UniProt P11836 1-297); test: cell-based or functional assay
T1 sequence (looked up): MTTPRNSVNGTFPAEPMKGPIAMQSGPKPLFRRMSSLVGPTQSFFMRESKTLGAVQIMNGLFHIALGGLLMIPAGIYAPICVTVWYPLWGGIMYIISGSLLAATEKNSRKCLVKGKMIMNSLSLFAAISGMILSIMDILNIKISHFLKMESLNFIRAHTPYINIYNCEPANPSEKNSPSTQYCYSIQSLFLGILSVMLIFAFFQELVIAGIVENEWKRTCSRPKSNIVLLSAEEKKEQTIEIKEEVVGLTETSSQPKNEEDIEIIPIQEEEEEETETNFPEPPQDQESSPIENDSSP

[2] = molecular target: T1, human CD20 (on Raji cells, CD3-, CD20+ …); test: cell-based or functional assay; remark: listed apart in the source
[3] = molecular target: T1, human CD20 (on Raji cells, CD3-, CD20+ …); test: cell-based or functional assay; remark: listed apart in the source
[4] = molecular target: T1, human CD20 (on Raji cells, CD3-, CD20+ …); test: FACS, serially diluted antibody on Raji cells (CD3-, CD20+)
Procedure: (§1) FACS data was acquired using the following protocol: Cells at 2×10⁵ per well were incubated with serially diluted antibodies for 30 min on ice. Post incubation, cells were washed and appropriate secondary (Jurkat, RAJI cells) or cocktail of secondary antibodies (for cyno PBMC) was added and incubated for an additional 30 minutes. After incubation, cells were washed, re-suspended in cold PBS containing 1% BSA and analyzed by flow cytometry on a BD FACS Canto II. Jurkat and Raji cells were gated by side and forward scatters, while cynomolgus T cells were also gated in a CD2+CD4+ population. The EC₅₀s for cell binding titration were determined using Prism software with values calculated using a 4-parameter non-linear regression analysis.

[5] = molecular target: T2, human CD3 (on Jurkat cells, CD3+, CD20- human T-cell line; on human T cells) (human, UniProt P07766; P04234; P09693; P20963); test: FACS, serially diluted antibody on Jurkat cells (CD3+, CD20-)
Sequence of UniProt P07766 (P07766 23-207, chain 1 of 4): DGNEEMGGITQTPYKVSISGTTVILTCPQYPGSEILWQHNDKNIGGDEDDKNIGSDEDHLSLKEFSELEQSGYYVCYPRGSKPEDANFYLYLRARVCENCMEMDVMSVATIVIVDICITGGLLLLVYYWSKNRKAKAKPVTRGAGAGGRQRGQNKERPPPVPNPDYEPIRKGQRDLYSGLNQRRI
Sequence of UniProt P07766 (P04234 22-171, chain 2 of 4, further chain): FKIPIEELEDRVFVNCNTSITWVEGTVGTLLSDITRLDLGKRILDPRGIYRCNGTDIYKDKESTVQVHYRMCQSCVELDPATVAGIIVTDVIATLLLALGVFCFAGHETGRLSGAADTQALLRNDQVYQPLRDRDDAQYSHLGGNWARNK
Sequence of UniProt P07766 (P09693 23-182, chain 3 of 4, further chain): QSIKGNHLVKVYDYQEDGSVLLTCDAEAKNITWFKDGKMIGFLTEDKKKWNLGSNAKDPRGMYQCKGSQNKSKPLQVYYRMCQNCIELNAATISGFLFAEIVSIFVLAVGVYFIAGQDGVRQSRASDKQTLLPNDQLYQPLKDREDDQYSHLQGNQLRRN
Sequence of UniProt P07766 (P20963 22-164, chain 4 of 4, further chain): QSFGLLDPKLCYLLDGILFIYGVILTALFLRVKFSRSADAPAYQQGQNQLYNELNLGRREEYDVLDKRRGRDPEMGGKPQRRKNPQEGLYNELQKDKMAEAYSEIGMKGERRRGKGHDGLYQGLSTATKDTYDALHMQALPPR
T2 construct: whole, on cells; SP34 is said to react with the epsilon chain
Procedure: as §1

[6] = molecular target: cynomolgus CD3 (on cynomolgus T cells from PBMCs, "mkT cells") (cynomolgus, UniProt Q95LI5 22-198; Q95LI8 22-171; Q95LI7 23-181); test: FACS, serially diluted antibody on cynomolgus T cells (CD2+CD4+ gate of PBMCs)
Sequence of UniProt Q95LI5 (Q95LI5 22-198, chain 1 of 3): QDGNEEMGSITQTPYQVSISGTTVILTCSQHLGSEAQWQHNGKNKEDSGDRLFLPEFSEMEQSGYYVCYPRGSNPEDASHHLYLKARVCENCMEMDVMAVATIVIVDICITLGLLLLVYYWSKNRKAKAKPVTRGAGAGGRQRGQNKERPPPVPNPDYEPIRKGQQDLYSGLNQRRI
Sequence of UniProt Q95LI5 (Q95LI8 22-171, chain 2 of 3, further chain): as the sequence (P04234 22-171, chain 2 of 4, further chain) above, with I5V, N15K, I20V, S32T, D33N, I34N, T64A, S74N, V83L, H141R counted along it
Sequence of UniProt Q95LI5 (Q95LI7 23-181, chain 3 of 3, further chain): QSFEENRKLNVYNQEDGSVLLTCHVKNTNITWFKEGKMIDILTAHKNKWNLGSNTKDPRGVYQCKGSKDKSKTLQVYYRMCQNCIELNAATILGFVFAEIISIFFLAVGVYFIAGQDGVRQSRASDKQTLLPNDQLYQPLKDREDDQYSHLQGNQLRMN
Procedure: as §1

B1: (Control) Antibody 4: CD3×CD20 antibody-wild-type Fc (wtFc) (bispecific antibody)
heavy 1: EVQLVESGGGLVQPGRSLRLSCVASGFTFNDYAMHWVRQAPGKGLEWVSVISWNSDSIGYADSVKGRFTISRDNAKNSLYLQMHSLRAEDTALYYCAKDNHYGSGSYYYYQYGMDVWGQGTTVTVSS[human IgG1 constant region not written out]
heavy 2: EVQLVESGGGLVQPGRSLRLSCAASGFTFDDYTMHWVRQAPGKGLEWVSGISWNSGSIGYADSVKGRFTISRDNAKKSLYLQMNSLRAEDTALYYCAKDNSGYGHYYYGMDVWGQGTTVTVAS[human IgG1 constant region with changes not written out]
light: EIVMTQSPATLSVSPGERATLSCRASQSVSSNLAWYQQKPGQAPRLLIYGASTRATGIPARFSGSGSGTEFTLTISSLQSEDFAVYYCQHYINWPLTFGGGTKVEIKRTVAAPSVFIFPPSDEQLKSGTASVVCLLNNFYPREAKVQWKVDNALQSGNSQESVTEQDSKDSTYSLSSTLTLSKADYEKHKVYACEVTHQGLSSPVTKSFNRGEC
notes: Same variable regions as Antibody 1 and Antibody 2, wild-type IgG1 CH; also called Control 4 (Anti-CD3 × CD20, wild-type CH); Control Ab 4
[1]
  Raji Cytotoxicity Human T-cells [M] (EC50, calcein release): 5.63e-11 M
  Raji Cytotoxicity Monkey T-cells [M] (EC50, calcein release): 1.27e-12 M
[2]
  Raji Cytotoxicity Activated Human T-cells [M] (EC50, calcein release): 1.57e-11 M
  Raji Cytotoxicity Activated Monkey T-cells [M] (EC50, calcein release): 1.73e-12 M
[3]
  % Survival B16F10.9/CD20 cells [M] (EC50, FACS, naive human PBMC effectors, 48 h): 1.28e-11 M
[4]
  EC50: 59.9 nM
[5]
  EC50: 38.5 nM
[6]
  EC50: 8740 nM
